# The list shows a part of the results.
# Legend:
# Experiment in all cases: glycan array binding signal (z-score within array); higher = stronger binding
# Settings in all cases: glycan notation: IUPAC condensed, linker removed
# [1] = biological target: Neu5Ac(a2-6)Gal(b1-4)GlcNAc(b1-3)Gal(b1-4)GlcNAc(b1-3)GalNAc
# Outline: (§1)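 Columns mapping to the same glycan were averaged after glycan names were converted to IUPAC-condensed notation. The data come from 3228 arrays in the Consortium for Functional Glycomics database, limited to those with an available protein sequence. Binding is reported as a within-array Z-score averaged across arrays of one protein sequence and across linkers.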
# [2] = biological target: Neu5Ac(a2-6)Gal(b1-4)GlcNAc(b1-3)Gal(b1-4)GlcNAc(b1-3)[Neu5Ac(a2-6)Gal(b1-4)GlcNAc(b1-3)Gal(b1-4)GlcNAc(b1-6)]GalNAc
# Outline: as §1
# [3] = biological target: Neu5Ac(a2-6)Gal(b1-4)GlcNAc(b1-3)Gal(b1-4)GlcNAc(b1-6)[Gal(b1-3)]GalNAc
# Outline: as §1
# [4] = biological target: Neu5Ac(a2-6)Gal(b1-4)GlcNAc(b1-3)Gal(b1-4)[Fuc(a1-3)]GlcNAc(b1-3)Gal(b1-4)[Fuc(a1-3)]GlcNAc
# Outline: as §1
# [5] = biological target: Neu5Ac(a2-6)Gal(b1-4)GlcNAc(b1-3)GalNAc
# Outline: as §1
# [6] = biological target: Neu5Ac(a2-6)Gal(b1-4)GlcNAc(b1-3)[Neu5Ac(a2-6)Gal(b1-4)GlcNAc(b1-6)]GalNAc
# Outline: as §1
# [7] = biological target: Neu5Ac(a2-6)Gal(b1-4)GlcNAc(b1-6)GalNAc
# Outline: as §1
# [8] = biological target: Neu5Ac(a2-6)Gal(b1-4)GlcNAc(b1-6)[Gal(b1-3)GlcNAc(b1-3)]Gal(b1-4)Glc
# Outline: as §1
# [9] = biological target: Neu5Ac(a2-6)Gal(b1-4)GlcNAc(b1-6)[Gal(b1-3)]GalNAc
# Outline: as §1
# [10] = biological target: Neu5Ac(a2-6)Gal(b1-4)GlcNAc6S
# Outline: as §1
# Neu5Ac(a2-6)GalNAc = biological target: Neu5Ac(a2-6)GalNAc
# Outline: as §1
# [11] = biological target: Neu5Ac(a2-6)GalNAc(b1-4)GlcNAc
# Outline: as §1
# [12] = biological target: Neu5Ac(a2-6)GalNAc(b1-4)GlcNAc6S
# Outline: as §1
# [13] = biological target: Neu5Ac(a2-6)GlcNAc(b1-4)GlcNAc
# Outline: as §1
# [14] = biological target: Neu5Ac(a2-6)GlcNAc(b1-4)GlcNAc(b1-4)GlcNAc
# Outline: as §1
# Neu5Ac(a2-8)Neu5Ac = biological target: Neu5Ac(a2-8)Neu5Ac
# Outline: as §1
# [15] = biological target: Neu5Ac(a2-8)Neu5Ac(a2-3)Gal(b1-3)GalNAc(b1-4)[Neu5Ac(a2-3)]Gal(b1-4)Glc
# Outline: as §1
# [16] = biological target: Neu5Ac(a2-8)Neu5Ac(a2-3)Gal(b1-3)GalNAc(b1-4)[Neu5Ac(a2-8)Neu5Ac(a2-3)]Gal(b1-4)Glc
# Outline: as §1
# [17] = biological target: Neu5Ac(a2-8)Neu5Ac(a2-3)Gal(b1-4)Glc
# Outline: as §1
# [18] = biological target: Neu5Ac(a2-8)Neu5Ac(a2-3)Gal(b1-4)GlcNAc
# Outline: as §1
# [19] = biological target: Neu5Ac(a2-8)Neu5Ac(a2-3)[Gal(b1-3)GalNAc(b1-4)]Gal(b1-4)Glc
# Outline: as §1
# [20] = biological target: Neu5Ac(a2-8)Neu5Ac(a2-3)[GalNAc(b1-4)]Gal(b1-4)Glc
# Outline: as §1
# [21] = biological target: Neu5Ac(a2-8)Neu5Ac(a2-8)Neu5Ac
# Outline: as §1
# [22] = biological target: Neu5Ac(a2-8)Neu5Ac(a2-8)Neu5Ac(a2-3)Gal(b1-4)Glc
# Outline: as §1
# [23] = biological target: Neu5Ac(a2-8)Neu5Ac(a2-8)Neu5Ac(a2-3)[Gal(b1-3)GalNAc(b1-4)]Gal(b1-4)Glc
# Outline: as §1
# [24] = biological target: Neu5Ac(a2-8)Neu5Ac(a2-8)Neu5Ac(a2-3)[GalNAc(b1-4)]Gal(b1-4)Glc
# Outline: as §1
# [25] = biological target: Neu5Ac(a2-8)Neu5Ac(a2-8)Neu5Ac(a2-8)Neu5Ac(a2-3)[GalNAc(b1-4)]Gal(b1-4)Glc
# Outline: as §1
# [26] = biological target: Neu5Ac(a2-8)Neu5Gc(a2-3)Gal(b1-4)GlcNAc
# Outline: as §1
# [27] = biological target: Neu5Ac(b2-6)Gal(b1-4)GlcNAc
# Outline: as §1
# Neu5Ac(b2-6)GalNAc = biological target: Neu5Ac(b2-6)GalNAc
# Outline: as §1
# [28] = biological target: Neu5Ac9Ac(a2-3)Gal(b1-3)GlcNAc
# Outline: as §1
# [29] = biological target: Neu5Ac9Ac(a2-3)Gal(b1-4)GlcNAc
# Outline: as §1
# [30] = biological target: Neu5Ac9Ac(a2-6)Gal(b1-4)GlcNAc
# Outline: as §1
# [31] = biological target: Neu5Gc(a2-3)Gal(b1-3)GlcNAc
# Outline: as §1
# [32] = biological target: Neu5Gc(a2-3)Gal(b1-3)[Fuc(a1-4)]GlcNAc
# Outline: as §1
# Neu5Gc(a2-3)Gal(b1-4)Glc = biological target: Neu5Gc(a2-3)Gal(b1-4)Glc
# Outline: as §1
# [33] = biological target: Neu5Gc(a2-3)Gal(b1-4)GlcNAc
# Outline: as §1
# [34] = biological target: Neu5Gc(a2-3)Gal(b1-4)GlcNAc(b1-3)Gal(b1-4)GlcNAc(b1-2)Man(a1-3)[Neu5Gc(a2-3)Gal(b1-4)GlcNAc(b1-3)Gal(b1-4)GlcNAc(b1-2)Man(a1-6)]Man(b1-4)GlcNAc(b1-4)GlcNAc
# Outline: as §1
# [35] = biological target: Neu5Gc(a2-3)Gal(b1-4)[Fuc(a1-3)]GlcNAc
# Outline: as §1
# [36] = biological target: Neu5Gc(a2-6)Gal(b1-4)GlcNAc
# Outline: as §1
# Neu5Gc(a2-6)GalNAc = biological target: Neu5Gc(a2-6)GalNAc
# Outline: as §1
# [37] = biological target: Neu5Gc(a2-8)Neu5Ac(a2-3)Gal(b1-4)GlcNAc
# Outline: as §1
# [38] = biological target: Neu5Gc(a2-8)Neu5Gc(a2-3)Gal(b1-4)GlcNAc
# Outline: as §1
# [39] = biological target: Neu5Gc(a2-8)Neu5Gc(a2-3)Gal(b1-4)GlcNAc(b1-3)Gal(b1-4)GlcNAc
# Outline: as §1
# [40] = biological target: Neu5Gc(a2-8)Neu5Gc(a2-6)Gal(b1-4)GlcNAc
# Outline: as §1
# [41] = biological target: Neu5Gc(b2-6)Gal(b1-4)GlcNAc
# Outline: as §1
binder,measurement,setting,value
Als3-2 (Candida albicans) (protein) KTITGVFNSFNSLTWSNAATYNYKGPGTPTWNAVLGWSLDGTSASPGDTFTLNMPCVFKFTTSQTSVDLTAHGVKYATCQFQAGEEFMTFSTLTCTVSNTLTPSIKALGTVTLPLAFNVGGTGSSVDLEDSKCFTAGTNTVTFNDGGKKISINVDFERSNVDPKGYLTD,glycan array binding signal (z-score),[1],1.59
same,glycan array binding signal (z-score),[2],1.54
same,glycan array binding signal (z-score),[3],-0.255
same,glycan array binding signal (z-score),[4],-0.584
same,glycan array binding signal (z-score),[5],-0.511
same,glycan array binding signal (z-score),[6],-0.353
same,glycan array binding signal (z-score),[7],0.527
same,glycan array binding signal (z-score),[8],0.624
same,glycan array binding signal (z-score),[9],-0.472
same,glycan array binding signal (z-score),[10],0.723
same,glycan array binding signal (z-score),Neu5Ac(a2-6)GalNAc,-0.624
same,glycan array binding signal (z-score),[11],-0.622
same,glycan array binding signal (z-score),[12],0.14
same,glycan array binding signal (z-score),[13],-0.657
same,glycan array binding signal (z-score),[14],-0.584
same,glycan array binding signal (z-score),Neu5Ac(a2-8)Neu5Ac,-0.01
same,glycan array binding signal (z-score),[15],1.6
same,glycan array binding signal (z-score),[16],-0.712
same,glycan array binding signal (z-score),[17],-0.68
same,glycan array binding signal (z-score),[18],-0.06
same,glycan array binding signal (z-score),[19],-0.554
same,glycan array binding signal (z-score),[20],-0.312
same,glycan array binding signal (z-score),[21],-0.398
same,glycan array binding signal (z-score),[22],-0.603
same,glycan array binding signal (z-score),[23],1.21
same,glycan array binding signal (z-score),[24],-0.256
same,glycan array binding signal (z-score),[25],2.03
same,glycan array binding signal (z-score),[26],0.414
same,glycan array binding signal (z-score),[27],-0.47
same,glycan array binding signal (z-score),Neu5Ac(b2-6)GalNAc,-0.638
same,glycan array binding signal (z-score),[28],-0.586
same,glycan array binding signal (z-score),[29],-0.346
same,glycan array binding signal (z-score),[30],-0.48
same,glycan array binding signal (z-score),[31],-0.055
same,glycan array binding signal (z-score),[32],0.203
same,glycan array binding signal (z-score),Neu5Gc(a2-3)Gal(b1-4)Glc,0.047
same,glycan array binding signal (z-score),[33],0.059
same,glycan array binding signal (z-score),[34],0.572
same,glycan array binding signal (z-score),[35],-0.059
same,glycan array binding signal (z-score),[36],0.625
same,glycan array binding signal (z-score),Neu5Gc(a2-6)GalNAc,-0.178
same,glycan array binding signal (z-score),[37],-0.101
same,glycan array binding signal (z-score),[38],-0.685
same,glycan array binding signal (z-score),[39],0.899
same,glycan array binding signal (z-score),[40],-0.628
same,glycan array binding signal (z-score),[41],0.295
